According to PubChem BioAssay AID504937 (National Center for Advancing Translational Sciences (NCATS), 2011):
Hit rate of the full screen: of about 340,000 compounds, about 20 (0.006%) were called active. The inconclusive results got no clear call from the source; some entries with a clear call stand among them for comparison. Calls come from the whole dose curve; as a rule, active = well fitted inhibition curve with a large enough effect; inconclusive = small, poorly fitted or top-dose-only effect; inactive = no such curve, though single readings can be large or run the other way. Where the call is inconclusive, the potency comes from a doubtful curve fit.
Potency is the fitted concentration of half-maximal effect; tags give direction and shape of the fitted curve.

What follows are molecules tested against Sphingomyelin phosphodiesterase (Homo sapiens) (UniProt P17405) (assay: Inhibitors of Secretory Acid Sphingomyelinase (S-ASM): qHTS). Details: placental ASM, HMU-PC fluorogenic substrate (series up to 57.5 µM), 60 min; activity change, negative = inhibition: at the top concentration.
Sequence of UniProt P17405 (P17405 whole entry, looked up): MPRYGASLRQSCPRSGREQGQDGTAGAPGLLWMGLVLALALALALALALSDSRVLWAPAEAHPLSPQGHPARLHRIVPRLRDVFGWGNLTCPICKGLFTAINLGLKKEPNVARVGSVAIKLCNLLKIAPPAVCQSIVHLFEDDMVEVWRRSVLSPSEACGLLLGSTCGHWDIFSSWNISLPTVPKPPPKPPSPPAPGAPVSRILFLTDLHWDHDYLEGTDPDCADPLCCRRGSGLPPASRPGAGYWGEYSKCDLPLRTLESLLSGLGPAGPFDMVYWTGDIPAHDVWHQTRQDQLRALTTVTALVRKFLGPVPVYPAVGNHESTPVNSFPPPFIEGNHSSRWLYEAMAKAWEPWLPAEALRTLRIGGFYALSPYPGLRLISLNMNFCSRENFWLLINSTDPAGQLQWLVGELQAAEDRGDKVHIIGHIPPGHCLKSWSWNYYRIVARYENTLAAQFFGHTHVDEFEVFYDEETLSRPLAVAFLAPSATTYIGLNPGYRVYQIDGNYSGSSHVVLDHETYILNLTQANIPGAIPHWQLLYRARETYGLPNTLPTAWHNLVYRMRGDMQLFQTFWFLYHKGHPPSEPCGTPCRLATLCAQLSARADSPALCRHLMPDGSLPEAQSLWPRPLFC
Procedure, shortened: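 HMU-PC0 cleavage (9 uM final) by human placental ASM, 60 min at 37 °C following 10 min compound exposure at RT; stopped at pH 10, fluorescence Ex 386/Em 447 nm.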
With `COc1ccc(CCC(C)N2CCC(Oc3ccc(C(=O)N4CCCC4)cc3)CC2)cc1` (centres undefined) the “activity change, negative = inhibition” value was inactive: 1.86%.
`O=[N+]([O-])c1ccc(Cl)cc1N/N=C/c1ccncc1` was tested, and the “activity change, negative = inhibition” value was inactive: -10.6%.
`CCCCCCC(=O)N1CCC(c2nc3c(nnn3Cc3ccccc3Cl)c(=O)[nH]2)CC1` was tested, and the Potency was inconclusive: 44.7 µM [inhibitor, partial curve, poor fit].
For `Cc1c(C(=O)N2CCN(c3ccc(F)cc3)CC2)sc2nc(-c3ccccc3)cn12`, the Potency was inconclusive: 224 µM [inhibitor, partial curve, poor fit].
In the case of `C#CCOCCOCCOCCNc1nc(N2CCN(C(=O)CCCCCCCCCCNC(=O)Cn3cc(C[C@@H](C)O)nn3)CC2)nc(N2CCN(C(=O)CCCCCCCCCCNC(=O)[C@H](CCCN=C(N)N)n3cc(C[C@@H](C)CC)nn3)CC2)n1`, the Potency is reported as inconclusive: 79.4 µM [inhibitor, single point].
With `O=C(NCc1ccc(Cl)cc1)C(=O)c1c[nH]c2ccccc12` the Potency was inconclusive: 891 µM [inhibitor, partial curve, poor fit].
`CCC1C/C(=C\c2cc(OC)c(OC)cc2OC)C(=O)/C(=C/c2cc(OC)c(OC)cc2OC)C1` (centres undefined) was tested, and the Potency was inconclusive: 89.1 µM [inhibitor, single point].
For `COc1ccc(CN(C(=O)CSc2nnc(-c3c[nH]c4ccccc34)o2)c2ccc(F)cc2)cc1OC`, the “activity change, negative = inhibition” value was inactive: -9.07%.
`COc1ccc(C)cc1N(C(=O)COc1cccc(F)c1)c1nc2ccccc2s1` was tested, and the Potency was inconclusive: 11.2 µM [inhibitor, partial curve, poor fit].
`C[C@H](CO)N1C[C@H](C)[C@@H](CN(C)C(=O)NC2CCCCC2)Oc2ccc(NC(=O)Nc3ccc(C(F)(F)F)cc3)cc2C1=O` was tested, and the Potency was inconclusive: 126 µM [inhibitor, partial curve].
With `O=C(CCc1nnc2ccc(N3CCC4(CC3)OCCO4)nn12)N1CCCCC1` the “activity change, negative = inhibition” value was inactive: 3.22%.
`COCCNc1oc(-c2ccc(C)cc2)nc1C#N` was tested, and the “activity change, negative = inhibition” value was inactive: 9.42%.
`O=C1CC(c2ccc(Cl)cc2)CC(=O)C1CS(=O)(=O)c1ccccc1` (centres undefined) was tested, and the Potency was inconclusive: 2 µM [inhibitor, full curve, poor fit].
`COc1ccc(CNC(=O)c2sc(=S)n(-c3ccc(OC)cc3)c2N)cc1` was tested, and the Potency was inconclusive: 89.1 µM [inhibitor, single point].
`S=C(Nc1ccc(Cl)cc1)NC1CC2CCCC(C1)N2C1CCCC1` (centres undefined) was tested, and the “activity change, negative = inhibition” value was inactive: -1.85%.
For `O=C(N/N=C/c1cn(-c2cccs2)nc1-c1ccccc1)c1ccccc1Cl`, the Potency was inconclusive: 316 µM [inhibitor, partial curve, poor fit].
With `Clc1ccccc1CN(Cc1ccccc1)c1ncnc2nc[nH]c12` the Potency was inconclusive: 251 µM [inhibitor, partial curve, poor fit].
In the case of `CCC(CC)c1nn2c(N)c(/C=C3\C(C)=Nc4ccccc43)c(=O)nc2s1`, the Potency is reported as inconclusive: 112 µM [inhibitor, partial curve].
In the case of `COc1cc(C(=O)Nc2scc(-c3ccc(Br)cc3)c2C(=O)O)cc(OC)c1OC`, the Potency is reported as inconclusive: 12.6 µM [inhibitor, partial curve, poor fit].
With `Cc1cc(-n2c(SCc3ccccc3F)nc3n[nH]c(C)c3c2=N)ccc1Cl` the Potency was inconclusive: 251 µM [inhibitor, partial curve, poor fit].
`O=[N+]([O-])c1ccc(C2=NN(CCO)C(=Nc3ccc(OC(F)(F)F)cc3)SC2)cc1` was tested, and the Potency was inconclusive: 56.2 µM [inhibitor, partial curve, poor fit].
With `Cc1cccc(N=C2Sc3nc4c(C)c(C)ccc4cc3CN2CCN2CCOCC2)c1` the Potency was inconclusive: 56.2 µM [inhibitor, partial curve, poor fit].
For `CCN1CCN(Cc2ccc(NC(=O)c3cc(NC(=O)C(=O)c4c[nH]c5ccccc45)cc(OC)c3)cc2C(F)(F)F)CC1`, the Potency was inconclusive: 89.1 µM [inhibitor, single point].
With `Cc1ccc(C(C)C)c(OCC(=O)Nn2c(=O)[nH]c3ccccc3c2=O)c1` the Potency was inconclusive: 56.2 µM [inhibitor, partial curve, poor fit].
With `COc1ccc(C2C(C#N)=C3NC(=O)c4c(sc5c4CCCCC5)N3C3=C2C(=O)CC(C)(C)C3)cc1` (centres undefined) the Potency was inconclusive: 631 µM [inhibitor, partial curve, poor fit].
With `CS(=O)(=O)c1ccc(Cl)c(NC(=O)COC(=O)CNC(=O)c2sc3ccccc3c2Cl)c1` the Potency was inconclusive: 3160 µM [inhibitor, partial curve, poor fit].
With `COc1ccc(-c2nnc3sc(COc4ccc(C)cc4)nn23)cc1` the Potency was inconclusive: 100 µM [inhibitor, single point].
`Cn1c(=O)c2c(nc(CN3CCN(c4cccc(Cl)c4)CC3)n2CCc2ccccc2)n(C)c1=O` was tested, and the Potency was inconclusive: 126 µM [inhibitor, partial curve, poor fit].
For `COCCNC(=O)c1ccccc1NC(=O)c1ccc(Cl)c(S(=O)(=O)Nc2ccc(C)cc2C)c1`, the Potency was inconclusive: 224 µM [inhibitor, partial curve, poor fit].
In the case of `CC1CN=C(c2ccccc2)O1` (centres undefined), the “activity change, negative = inhibition” value is reported as inactive: 0.57%.
With `Cc1cc(CSc2ccccc2)ccc1NC(=O)c1ccc(Cl)c([N+](=O)[O-])c1` the Potency was inconclusive: 2240 µM [inhibitor, partial curve, poor fit].
With `CN(C)CCNC=C(C(=O)Nc1ccc(Cl)cc1Cl)C(=O)Nc1ccc(Cl)cc1Cl` the Potency was inconclusive: 79.4 µM [inhibitor, single point].
`CC(=O)C1=C(C)NC(=O)NC1c1ccccc1OCC(=O)NCCc1ccccc1` (centres undefined) was tested, and the “activity change, negative = inhibition” value was inactive: 4.8%.
With `COc1ccc(N2C(=O)CCC2(C#N)c2ccc(OC)cc2)cc1` (centres undefined) the Potency was inconclusive: 12.6 µM [inhibitor, partial curve, poor fit].
`CCc1ccc(N2CC(C(=O)Nc3nc4ccc(S(C)(=O)=O)cc4s3)CC2=O)cc1` (centres undefined) was tested, and the Potency was inconclusive: 28.2 µM [inhibitor, partial curve, poor fit].
In the case of `O=C(O)/C=C/C(=O)Nc1ccccc1SC(F)(F)C(F)(F)C(F)(F)F`, the “activity change, negative = inhibition” value is reported as inactive: 8.35%.
In the case of `O=C(Nc1nc2ccccc2c(=O)[nH]1)c1ccccc1SCc1ccccc1`, the Potency is reported as inconclusive: 79.4 µM [inhibitor, partial curve].
In the case of `O=C(O)COc1ccccc1C(Nc1cccnc1)c1cc(Cl)c2cccnc2c1O` (centres undefined), the Potency is reported as inconclusive: 1780 µM [inhibitor, partial curve, poor fit].
For `CCCCn1c2ccc(C)cc2c2nnc(SCCN3CCCCC3)nc21`, the “activity change, negative = inhibition” value was inactive: -9.62%.
For `CCOc1ccccc1N=NC1C(=O)N(C(N)=S)N=C1C` (centres undefined), the “activity change, negative = inhibition” value was inactive: -2.58%.
In the case of `O=C(Oc1ccc(/C=N/O)cc1)c1ccccc1`, the Potency is reported as inconclusive: 89.1 µM [inhibitor, partial curve].
For `COc1ccc(N=C2SC(CC(=O)Nc3ccccc3)C(=O)N2CC2CCCO2)cc1` (centres undefined), the Potency was inconclusive: 100 µM [inhibitor, partial curve, poor fit].
With `O=C(CN(CCc1ccccc1)S(=O)(=O)c1ccc(Br)cc1)N/N=C/c1ccccc1C(=O)O` the “activity change, negative = inhibition” value was inactive: -1.39%.
For `Cc1cc2c(=Cc3ccc(N(C)C)cc3)c3ccccc3n2[n+]1C`, the Potency was inconclusive: 100 µM [inhibitor, single point].
In the case of `C=C(C)COc1ccc(-c2n[nH]c(C)c2-c2ccc(OC)cc2)c(O)c1`, the Potency is reported as inconclusive: 79.4 µM [inhibitor, partial curve, poor fit].
`COc1ccc(N2CCN(S(=O)(=O)c3cc(-c4cc(C)no4)ccc3C(C)C)CC2)cc1` was tested, and the Potency was inconclusive: 35.5 µM [inhibitor, partial curve, poor fit].
With `COc1ccc(Cc2nnc(NC(=O)CSc3ccccc3)s2)cc1` the “activity change, negative = inhibition” value was inactive: -1.09%.
In the case of `COc1ccc2oc(C(=O)OCC(=O)NC(=O)c3ccccc3)c(C)c2c1`, the Potency is reported as inconclusive: 89.1 µM [inhibitor, partial curve].
In the case of `O=C(N/N=C/c1c[nH]c2ccccc12)c1cc(-c2ccc3ccccc3c2)n[nH]1`, the Potency is reported as inconclusive: 100 µM [inhibitor, single point].
For `Cc1ccc(N=C2SC(C(=O)Nc3ccc(OC(F)(F)F)cc3)C(N)=C2C(=O)Nc2c(C)cc(C)cc2C)cc1` (centres undefined), the Potency was inconclusive: 31.6 µM [inhibitor, partial curve, poor fit].
With `CCCCn1c(CN2CCN(c3cccc(Cl)c3)CC2)nc2c1c(=O)[nH]c(=O)n2C` the Potency was inconclusive: 112 µM [inhibitor, partial curve, poor fit].
For `O=C(NNC1=C(C(=O)C(F)(F)F)CCC1)c1ccc(Cl)cc1`, the “activity change, negative = inhibition” value was inactive: -2.34%.
`CCCCCCCCCCOC(=O)Cn1c(COc2cccc(C)c2)[n+](C)c2ccccc21` was tested, and the Potency was inconclusive: 79.4 µM [inhibitor, single point].
For `O=C(CN1C(=O)/C(=C2/SC(=S)N(CCS(=O)(=O)O)C2=O)c2ccccc21)Nc1cccc(C(F)(F)F)c1`, the Potency was inconclusive: 79.4 µM [inhibitor, single point].
`Cn1cnc(S(=O)(=O)N2CCN(c3ccccc3)CC2)c1` was tested, and the “activity change, negative = inhibition” value was inactive: 3.77%.
For `CCCc1nc(SCC(=O)c2ccccc2)c2c(=O)n(C)c(=O)n(C)c2n1`, the Potency was inconclusive: 56.2 µM [inhibitor, single point].
`C[C@H](CO)N1C[C@H](C)[C@@H](CN(C)C(=O)Nc2ccc(C(F)(F)F)cc2)Oc2c(NS(=O)(=O)c3ccccc3)cccc2C1=O` was tested, and the “activity change, negative = inhibition” value was inactive: -20.1%.
In the case of `O=C(c1cccc(S(=O)(=O)N2CCN(c3ccc(F)cc3)CC2)c1)N1CCCC(C(F)(F)F)C1` (centres undefined), the “activity change, negative = inhibition” value is reported as inactive: -0.988%.
With `OCCOCCn1c(C2CCCN2c2nc(-c3ccc(F)cc3)cs2)nc2cc(Cl)c(Cl)cc21` (centres undefined) the Potency was inconclusive: 70.8 µM [inhibitor, partial curve, poor fit].
